The other results are listed elsewhere or left out.
System: PF3D7_0420300 AP2 domain 1 (GST-tagged)
Assay: gcPBM binding intensity (ln(normalized median fluorescence intensity)); higher = stronger DNA binding
Outline: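 Alexa488 anti-GST antibody, scanned at 488 nm, detected GST-tagged P. falciparum DNA-binding domains that had been expressed in E. coli and incubated for 1 h on an Agilent 4 × 180k array. The array carried primer-extended double-stranded 36-bp intergenic genomic probes and negative controls. Binding intensity is the highest Masliner-normalised natural-log median intensity across replicate spots of either orientation of each probe.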

Row | Sequence | gcPBM binding intensity (ln)
1 | TCATACATGGTGTGTTTGCACTTGACCTATATTCAT | 9.26
2 | TCTTGAATAACAAAAAAATGTGCCAACAAAATAAAT [XGTACX_negctrl_site172] | 9.5
3 | TATTTTAACATTAGGTGTACATACAAAAATAAAAAT [XGTACX_site8577] | 9.3
4 | AATATTTGTTAAAGAGGTACACCATTTGGTAGGGAA [XGTACX_site2165] | 9.19
5 | ATAATATGAAAACACACACACACACTAGAAAAAAAA [CACACA_site5153] | 10.3
6 | AAAAAAAAAAATATAACACACAACAAAAAAATATAT [CACACA_site1753] | 9.89
7 | ATTATTTAAATGGATGCACACATGCATTAAATAAAA [CACACA_site5831] | 9.11
8 | TTTTTCTTTTTACATACACACAAAAAAATAAAATAT [CACACA_site581] | 9.23
9 | TTTTTCAAATTTAATACACACACAAGTATATATTTA [CACACA_site9307] | 9.49
10 | AAATTAATATTATGTGCATGCACAAAGAGGAACGAC [TGCATGCA_site754] | 9.95
11 | TGGTAATTTCTTTGATAAAAATTAATATGTATAAAT [XGTACX_negctrl_site152] | 8.79
12 | ACTTACACAGTTGATGGTACACTTTTATGATTTTGT [XGTACX_site3205] | 9.56
13 | TTTTTTAACCTTTTATGTACACAATATTTAACATTT [XGTACX_site1170] | 9.39
14 | TATATATAAAGGTGTACACATATATATATATCTGTA [CACACA_site5311] | 9.28
15 | ATTTCATATTATGTAACACACAACAAGATAATCAAA [CACACA_site1960] | 9.47
16 | ACAAGTTAAAATATTACACACATATAAATATATATA [CACACA_site3132] | 9.41
17 | ATAAGGTTACAACAAACACACAAAGGAATATACTCA [CACACA_site6108] | 9.68
18 | TTTTATTTACACAGTGGTACTATTAAAAATTAATGA [XGTACX_site6737] | 9
19 | AAAAAACAAAAAATTACACACATATATAAATATATT [CACACA_site2317] | 9.54
20 | TAATAAAGGTGTAATACACACTATAAAAAGGAATAT [CACACA_site4756] | 9.61
21 | ATGTGTATATATTATTGTACATATATATATATATAT [XGTACX_site4627] | 9.31
22 | AAAAAAAAAAAAAAAAGTACTAATTGAATATTAAAC [XGTACX_site3383] | 9.24
23 | ACATATATATAAATATATATATATATATATATATAT [CACACA_negctrl_site874] | 9

Row | Sequence | gcPBM binding intensity (ln)
24 | ATGGTAAGTATTTTATGTACATATATATTTATATAA [XGTACX_site4003] | 9.24
25 | TACACCCATAGACACACACACACGCATAAAAAAAAA [CACACA_site8428] | 9.93
26 | TCTATTAATTAATATACACACATTAGATATAAATAT [CACACA_site7241] | 9.38
27 | TAATTAAATAAAAAAACACACACATATATACATATA [CACACA_site9141] | 9.95
28 | ACACATATATAAATATGTACATATATATATATACAT [XGTACX_site1595] | 9.33
29 | TATCATGTCTGTATTTCACACACGGATAATCATTTA [CACACA_site920] | 9.48
30 | ATGTATATAATAAGAACACACATATATTTAATTTAA [CACACA_site2941] | 9.47
31 | TATTCTATATTTCTATTTAGAAAACATCCCAGTGTG [GTGCAC_negctrl_site184] | 8.87
32 | TGTTATATTTAATATAGTACATATTATTTTATATAT [XGTACX_site70] | 9.12
33 | AAAAATAAAATATATACATGCATATACATATTATAT [TGCATGCA_site668] | 9.29
34 | AGAAAATTAAAAAGAACACACAAATATATATAGAAT [CACACA_site3592] | 10
35 | ATTTATATGCACCATTGTACGTTTTATAAAGTTTGG [XGTACX_site3755] | 9.35
36 | ATACATATATACATACGTACTTATATACATATGTGC [XGTACX_site5268] | 9.2
37 | TTATTATGCTGAGTACGTACTTATATAAGAATAGCA [XGTACX_site2955] | 9.08
38 | AAATTATTTCCGTGTACACATAAATATATATTTTAT [CACACA_site5121] | 9.45
39 | CAATTACAAAAGAAATGTACTCGTAATAAATAAATA [XGTACX_site1126] | 9.29
40 | TGAAATTTTTATACATGTACAAAATTAAATATAACA [XGTACX_site7324] | 9.13
41 | TATAATAATAATAATAGTACGTATTATTAAAAAACT [XGTACX_site10] | 9.29
42 | ATATTACACATATATGCACACATTGTAGTTATTTAT [CACACA_site8843] | 9.7
43 | TAATAAGTAAAAAAATGTACCCGTTAGGTTTAATAA [XGTACX_site638] | 9.14
44 | AAAATAATATTTAATACACACACCAGTTCTGCAAAT [CACACA_site3736] | 9.82
45 | TTTTTTTATTTTATTTTATTATCTTATGTATCACAA [CACACA_negctrl_site1755] | 9.22

Reference: the supplement of paper PMC11417369
